Results on 153 variants are retold here after a collection of fitness landscapes (doi:10.1016/j.celrep.2020.107928).

The full ranking holds about 81,000 sequences; the median of “one-hybrid fitness for binding NBS DNA” is about -0.1, and the highest 2% start at about 0.36. The list shows a part of the results. Some results are limits rather than exact numbers.

The chains are these.
B1: Caulobacter ParB omega fusion; a variant is named by its letters at X, in order, B8GW30 (parent)
chain: MESVVVGEPGMSEGRRGLGRGLSALLGEVDAAPAQAPGEQLGGSREAPIEILQRNPDQPRRTFREEDLEDLSNSIREKGVLQPILVRPSPDTAGEYQIVAGERAWRAAQRAGLKTVPIMVRELDDLAVLEIGIIENVQRADLNVLEEALSYKVLMEKFERTQENIAQTIGKSXSHVANXMRLLXLPDEVQSYLVSGELTAXHARAIAAAADPVALAKQIIEGGLSVRETEALARKAPNLSAGKSKGGRPPRVKDTDTQALESDLSSVLGLDVSIDHRGSTGTLTITYATLEQLDDLCNRLTRGI

The variants in this assay derive from B1. The assay is described as follows: one-hybrid fitness for binding NBS DNA (the Noc-binding site; scaled: cognate 1, non-cognate 0); higher = stronger binding. The conditions noted are these: with NBS DNA site. In outline: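 Selection: bacterial one-hybrid in E. coli USO, HIS3 reporter with the site 19 bp from the promoter, 48 hours at 37°C on M9-minus-histidine plus 0.1 mM IPTG and 5 mM 3-AT. Libraries were Caulobacter ParB with four randomised specificity codons, sequenced on Illumina before and after selection. Fitness is the rescaled log change in variant-to-wild-type read ratio, anchored to the cognate and non-cognate sites.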
In the case of KRIC, the “one-hybrid fitness for binding NBS DNA” value was at most 0.2.
Take TRTV: the “one-hybrid fitness for binding NBS DNA” value was at most 0.2.
To WEPL belongs at most 0.2; to RKDK, at most 0.2; to PLRP, at most 0.2.
Turning to EAGH, the “one-hybrid fitness for binding NBS DNA” value is at most 0.2.
To LCKH belongs at most 0.2.
Consider RKCL, for which the “one-hybrid fitness for binding NBS DNA” value was at most 0.2.
As to ATHN, the “one-hybrid fitness for binding NBS DNA” value was at most 0.2.
Consider EKHF, for which the “one-hybrid fitness for binding NBS DNA” value was at most 0.2.
For the variant QQEV, the “one-hybrid fitness for binding NBS DNA” value is at most 0.2.
Regarding HSEP, the “one-hybrid fitness for binding NBS DNA” value was at most 0.2.
Take IVIC: the “one-hybrid fitness for binding NBS DNA” value is at most 0.2.
As to PNCR, the “one-hybrid fitness for binding NBS DNA” value was at most 0.2.
In the case of KNDK it was at most 0.2; in that of WLTV, at most 0.2.
Take MQTT: the “one-hybrid fitness for binding NBS DNA” value was at most 0.2.
In the case of DGTS, the “one-hybrid fitness for binding NBS DNA” value is at most 0.2.
Take RYYH: the “one-hybrid fitness for binding NBS DNA” value was at most 0.2.
To QCTW belongs at most 0.2; to PFDS, at most 0.2.
On to CRIG, for which the “one-hybrid fitness for binding NBS DNA” value was at most 0.2.
In the case of YAWW, the “one-hybrid fitness for binding NBS DNA” value is at most 0.2.
Regarding TDRY, the “one-hybrid fitness for binding NBS DNA” value is at most 0.2.
For the variant PNIE, the “one-hybrid fitness for binding NBS DNA” value was at most 0.2.
In the case of AQFC, the “one-hybrid fitness for binding NBS DNA” value is at most 0.2.
Regarding TSTY, the “one-hybrid fitness for binding NBS DNA” value was at most 0.2.
On to GMAT, for which the “one-hybrid fitness for binding NBS DNA” value is at most 0.2.
Take ADMI: the “one-hybrid fitness for binding NBS DNA” value is at most 0.2.
Take HAHC: the “one-hybrid fitness for binding NBS DNA” value is at most 0.2.
Consider CLSF, for which the “one-hybrid fitness for binding NBS DNA” value was at most 0.2.
In the case of HINM it was at most 0.2; in that of HPRK, at most 0.2.
In the case of PKIW it was at most 0.2; in that of QSVC, at most 0.2; in that of EIIR, at most 0.2.
On to EDME, for which the “one-hybrid fitness for binding NBS DNA” value is at most 0.2.
In the case of HKDD it was at most 0.2; in that of ESWG, at most 0.2; in that of YVFS, at most 0.2.
On to QMCR, for which the “one-hybrid fitness for binding NBS DNA” value is 0.509.
Take RVCE: the “one-hybrid fitness for binding NBS DNA” value was at most 0.2.
Take TLKR: the “one-hybrid fitness for binding NBS DNA” value worked out at 0.242.
Turning to HPSL, the “one-hybrid fitness for binding NBS DNA” value was at most 0.2.
As for VTKH, the “one-hybrid fitness for binding NBS DNA” value is at most 0.2.
As for IAPG, the “one-hybrid fitness for binding NBS DNA” value is at most 0.2.
Consider IERR, for which the “one-hybrid fitness for binding NBS DNA” value was at most 0.2.
For HWTR, the “one-hybrid fitness for binding NBS DNA” value is at most 0.2.
Regarding SRVE, the “one-hybrid fitness for binding NBS DNA” value was at most 0.2.
In the case of ALDS it was at most 0.2.
For QQMY, the “one-hybrid fitness for binding NBS DNA” value is at most 0.2.
In the case of RSCW it was at most 0.2; in that of VVSR, at most 0.2; in that of VRRV, at most 0.2.
As to LKIS, the “one-hybrid fitness for binding NBS DNA” value is at most 0.2.
To GMIR belongs at most 0.2; to TEPT, at most 0.2; to TFYG, at most 0.2.
In the case of SSHH, the “one-hybrid fitness for binding NBS DNA” value is at most 0.2.
In the case of REHN it was at most 0.2; in that of DQAR, at most 0.2.
NLRH: the “one-hybrid fitness for binding NBS DNA” value is at most 0.2.
On to CLRK, for which the “one-hybrid fitness for binding NBS DNA” value is at most 0.2.
In the case of QQMW it was at most 0.2; in that of ASPN, at most 0.2.
In the case of CLNC, the “one-hybrid fitness for binding NBS DNA” value was at most 0.2.
To VANG belongs at most 0.2.
As for QFKA, the “one-hybrid fitness for binding NBS DNA” value is at most 0.2.
In the case of KLKM it was at most 0.2; in that of VMRP, at most 0.2; in that of FINT, at most 0.2.
On to TGRM, for which the “one-hybrid fitness for binding NBS DNA” value was at most 0.2.
For QVEC, the “one-hybrid fitness for binding NBS DNA” value is at most 0.2.
Regarding YLWT, the “one-hybrid fitness for binding NBS DNA” value was at most 0.2.
To DNVR belongs at most 0.2; to TWYC, at most 0.2; to TITL, at most 0.2.
In the case of RGMP, the “one-hybrid fitness for binding NBS DNA” value is at most 0.2.
To AHQI belongs at most 0.2.
For the variant RVGQ, the “one-hybrid fitness for binding NBS DNA” value is at most 0.2.
Take TMPI: the “one-hybrid fitness for binding NBS DNA” value was at most 0.2.
As for MKTL, the “one-hybrid fitness for binding NBS DNA” value is at most 0.2.
In the case of ASHV, the “one-hybrid fitness for binding NBS DNA” value was at most 0.2.
In the case of LMYF, the “one-hybrid fitness for binding NBS DNA” value is at most 0.2.
Take QVQF: the “one-hybrid fitness for binding NBS DNA” value was at most 0.2.
To WTMS belongs at most 0.2; to RDFC, at most 0.2; to LRSP, at most 0.2.
With LAWS, the “one-hybrid fitness for binding NBS DNA” value was at most 0.2.
For SPCT, the “one-hybrid fitness for binding NBS DNA” value is at most 0.2.
As for YVGC, the “one-hybrid fitness for binding NBS DNA” value is at most 0.2.
Turning to MIPM, the “one-hybrid fitness for binding NBS DNA” value is at most 0.2.
As for TRPP, the “one-hybrid fitness for binding NBS DNA” value is at most 0.2.
For LSQD, the “one-hybrid fitness for binding NBS DNA” value was at most 0.2.
For the variant PILT, the “one-hybrid fitness for binding NBS DNA” value is at most 0.2.
As to LDVS, the “one-hybrid fitness for binding NBS DNA” value is at most 0.2.
For the variant PMRR, the “one-hybrid fitness for binding NBS DNA” value is at most 0.2.
QRPS: the “one-hybrid fitness for binding NBS DNA” value amounted to 0.461.
In the case of CYLF it was at most 0.2.
In the case of LKLL, the “one-hybrid fitness for binding NBS DNA” value was at most 0.2.
With AIAF, the “one-hybrid fitness for binding NBS DNA” value was at most 0.2.
QEIV: the “one-hybrid fitness for binding NBS DNA” value was at most 0.2.
To RKEY belongs at most 0.2; to YISF, at most 0.2.
In the case of ARWV it was at most 0.2; in that of SSWI, at most 0.2; in that of AIRV, at most 0.2.
Take NYSA: the “one-hybrid fitness for binding NBS DNA” value is at most 0.2.
Turning to DYGV, the “one-hybrid fitness for binding NBS DNA” value was at most 0.2.
Turning to KSMD, the “one-hybrid fitness for binding NBS DNA” value is at most 0.2.
RCES: the “one-hybrid fitness for binding NBS DNA” value was determined as 0.207.
In the case of DSVR, the “one-hybrid fitness for binding NBS DNA” value was at most 0.2.
On to HSAQ, for which the “one-hybrid fitness for binding NBS DNA” value is at most 0.2.
Turning to YEKM, the “one-hybrid fitness for binding NBS DNA” value was at most 0.2.
For the variant FSPR, the “one-hybrid fitness for binding NBS DNA” value was at most 0.2.
With STKG, the “one-hybrid fitness for binding NBS DNA” value is at most 0.2.
In the case of RKIH it was at most 0.2; in that of ERPY, at most 0.2.
For the variant ASGP, the “one-hybrid fitness for binding NBS DNA” value was at most 0.2.
TRLK: the “one-hybrid fitness for binding NBS DNA” value is at most 0.2.
QYSE: the “one-hybrid fitness for binding NBS DNA” value was at most 0.2.
To QLIV belongs at most 0.2.
Take LSMR: the “one-hybrid fitness for binding NBS DNA” value was at most 0.2.
As to NLVR, the “one-hybrid fitness for binding NBS DNA” value is at most 0.2.
In the case of IRRE, the “one-hybrid fitness for binding NBS DNA” value is at most 0.2.
For the variant QASA, the “one-hybrid fitness for binding NBS DNA” value was at most 0.2.
As for AWDC, the “one-hybrid fitness for binding NBS DNA” value is at most 0.2.
Take VRHY: the “one-hybrid fitness for binding NBS DNA” value is at most 0.2.
As to SSHL, the “one-hybrid fitness for binding NBS DNA” value was at most 0.2.
In the case of QVDV it was at most 0.2.
Take ISSV: the “one-hybrid fitness for binding NBS DNA” value was at most 0.2.
For RCKN, the “one-hybrid fitness for binding NBS DNA” value was determined as 0.27.
In the case of PMLI it was at most 0.2; in that of AVMV, at most 0.2; in that of ILMG, at most 0.2.
Take FCES: the “one-hybrid fitness for binding NBS DNA” value is at most 0.2.
In the case of DHKN it was at most 0.2; in that of KELL, at most 0.2.
For the variant QILD, the “one-hybrid fitness for binding NBS DNA” value was at most 0.2.
Regarding LQTF, the “one-hybrid fitness for binding NBS DNA” value is at most 0.2.
HHER: the “one-hybrid fitness for binding NBS DNA” value is at most 0.2.
In the case of AFNL it was at most 0.2; in that of RNQR, 0.271.
Regarding DLMR, the “one-hybrid fitness for binding NBS DNA” value is at most 0.2.
For DYTL, the “one-hybrid fitness for binding NBS DNA” value was at most 0.2.
With RKRA, the “one-hybrid fitness for binding NBS DNA” value was found to be 0.45.
Consider LLKF, for which the “one-hybrid fitness for binding NBS DNA” value is at most 0.2.
Regarding LTYE, the “one-hybrid fitness for binding NBS DNA” value was at most 0.2.
Regarding SWPT, the “one-hybrid fitness for binding NBS DNA” value was at most 0.2.
As for HEWM, the “one-hybrid fitness for binding NBS DNA” value was at most 0.2.
For RYRD, the “one-hybrid fitness for binding NBS DNA” value is at most 0.2.
For RETN, the “one-hybrid fitness for binding NBS DNA” value is at most 0.2.
Regarding DNIR, the “one-hybrid fitness for binding NBS DNA” value was at most 0.2.
